Some of the results follow.
Each molecule was assayed on T1, C. trachomatis L2/434/Bu expressing GFP (CTL2-GFP). Details: total inclusion area; 28.5 h, 10 µM; inhibitor.
T1 construct: L2/434/Bu GFP intracellular growth in HeLa cells
Design: species or system HeLa; C. trachomatis total inclusion area by high-content imaging, normalised to DMSO
Method in brief: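 Bulk GFP and resorufin signals were read first. Wells were then fixed, stained with Hoechst and imaged to detect GFP inclusions and host nuclei. MICs followed the previously described calculation.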

Compared with `COc1ccc2[nH]cc(CCNC(=O)C3CC(=O)c4ccccc43)c2c1` (stereo not drawn) [CBK116221], `O=C(Cc1ccc(Cl)c(Cl)c1)NCCc1c[nH]c2ccc(Cl)cc12` [CBK159749] is lower in “% of control remaining” value: 100.457 for the first, 90.3846 for the second.

First: COc1ccc(-n2c(C)c([N+](=O)[O-])c3ccc(O)c(CNCCCO)c32)cc1 [CBK263504C]
Second: C=CCNCc1cc2c(C)nn(-c3ccc(F)cc3)c2[nH]c1=O [CBK283117]
The “% of control remaining” value of the first is higher: 100.234 for the first, 70.9943 for the second.

Compared with `Nc1ncnc(NCCCn2ccnc2)c1[N+](=O)[O-]` [CBK267312], `Cc1ccc2ncnc(NCCCCCC(=O)O)c2c1` [CBK287256] is higher in “% of control remaining” value: 101.065 for the first, 113.526 for the second.

First: O=C1CC(c2ccccc2)c2c(n3ccsc3nc2=O)N1 (stereo not drawn) [CBK287923]
Second: COc1ccc(C(=O)N2CC[C@H]3NC(=O)N(c4ccccc4)C(=O)[C@H]32)cc1 [CBK289281]
The “% of control remaining” value of the first is lower: 80.1438 for the first, 82.2573 for the second.

Compared with `CC(=O)Nc1cccc(NC(=O)CCCC(=O)O)c1` [CBK261598], `COc1cc(NC(=O)CC2(CC(=O)O)CCCCC2)ccc1N1CCCC1=O` [CBK296637] is lower in “% of control remaining” value: 112.738 for the first, 80.8043 for the second.

First: CCN(CC(=O)NCc1ccc(F)cc1)S(=O)(=O)c1ccccc1C#N [CBK305842]
Second: N#Cc1ccc(Cn2nc(NC(=O)c3ccco3)c3ccccc32)cc1 [CBK048260]
The “% of control remaining” value of the first is lower: 70.3208 for the first, 99.2165 for the second.

Compared with `Cc1cnoc1-c1cc(Br)cc(Br)c1O` [CBK012420], `Cc1ccc(-c2nccnc2OCCC(C)C)c(C)c1` [CBK106988] is lower in “% of control remaining” value: 97.7303 for the first, 96.4444 for the second.

First: Cc1nnc(SCCn2c(N3CC(C)CC(C)C3)nc3c2c(=O)n(C)c(=O)n3C)s1 (stereo not drawn) [CBK269419]
Second: Cn1c(=O)n(CCN2CCOCC2)c(=O)c2c1nc1n2CCN1c1ccccc1 [CBK269328]
The “% of control remaining” value of the first is higher: 97.463 for the first, 84.7662 for the second.

Going from `COc1ccc(/C=N/NC(=O)c2ccc(CN3CCOCC3)cc2)cc1[N+](=O)[O-]` [CBK262708] to `COc1ccc(S(=O)(=O)N(C)CC(=O)N2CCN(Cc3ccccc3)CC2)cc1C` [CBK268221], the “% of control remaining” value falls from 97.5915 to 86.2503.

First: Cc1ccc(N(Cc2ccc(C(=O)N(C)Cc3ccccc3)cc2)S(C)(=O)=O)cc1C [CBK263795]
Second: CCn1c(C)nc2cc(NC(=O)c3ccc(CN(C)C)cc3)ccc21 [CBK281880]
The “% of control remaining” value of the first is higher: 105.758 for the first, 95.5453 for the second.

Going from `N#CC(N)c1c(Cl)cccc1Cl` (stereo not drawn) [CBK008288C] to `CCOCCc1nsc(NS(=O)(=O)c2cccc(Cl)c2C)n1` [CBK034245], the “% of control remaining” value rises from 69.6115 to 70.0763.

Compared with `Cn1c(N2CC[C@H](O)C2)nc2cc(C(=O)NCCC3CCCC3)ccc21` [CBK307447], `COc1ccc2[nH]cc([C@@H]3CCC[C@H](NC(=O)C4CCCO4)C3)c2c1` (stereo partly drawn) [CBK284699] is higher in “% of control remaining” value: 47.2053 for the first, 88.2312 for the second.

Compared with `COc1cc2c(cc1NC(=O)CN(C)S(=O)(=O)c1ccc(Cl)cc1)oc1ccccc12` [CBK267404], `CC(=O)Nc1ccc(S(=O)(=O)N(C)c2ccccn2)cc1Cl` [CBK044789] is lower in “% of control remaining” value: 102.384 for the first, 100.148 for the second.

Going from `Cc1cc(C2CCCN2C(=O)c2ccc(C(F)(F)F)nc2)on1` (stereo not drawn) [CBK305761] to `O=C(c1cncnc1)N1CC[C@H](c2nc3cc(F)ccc3[nH]2)C1` [CBK289376], the “% of control remaining” value rises from 62.4345 to 101.659.

First: O=C(Nc1ccccn1)c1cnn(-c2ccc(Cl)cc2)c1C(F)(F)F [CBK107442]
Second: CN1CCN(c2ccccc2NC(=O)CSc2ccc(Cl)cc2)CC1 [CBK267941]
The “% of control remaining” value of the first is lower: 76.3985 for the first, 87.188 for the second.

Compared with `Cc1csc(C(Cc2ccsc2)NC(=O)Cc2ccccn2)n1` (stereo not drawn) [CBK285097], `O=C(O)c1nccnc1-c1ccc(COc2cccc3ccccc23)cc1` [CBK050810] is lower in “% of control remaining” value: 108.427 for the first, 87.132 for the second.

Compared with `O=c1sn(C2CCCCC2)c(=O)n1Cc1ccc(F)cc1` [CBK113604], `O=C(O)c1ccccc1C(=O)N1CCN(Cc2ccc3c(c2)OCO3)CC1` [CBK074751] is lower in “% of control remaining” value: 109.9 for the first, 73.2369 for the second.

First: O=C(O)CNS(=O)(=O)c1c(F)c(F)c(F)c(F)c1F [CBK269986]
Second: CCNS(=O)(=O)c1ccc(NS(=O)(=O)Cc2ccccc2)cc1 [CBK268257]
The “% of control remaining” value of the first is lower: 63.5501 for the first, 103.224 for the second.

Going from `C=CCNc1nc(NCCN2CCOCC2)nc(N2CCOCC2)n1` [CBK263074] to `FC(F)(F)C1=NC(C(F)(F)F)=NP(N2CCOCC2)(N2CCOCC2)=N1` [CBK261042], the “% of control remaining” value falls from 102.135 to 89.2824.

Compared with `Cc1ccc(S(=O)(=O)N2CCSC2C(=O)O)cc1` (stereo not drawn) [CBK286964], `Cc1ccc(C2(C(=O)N3CCCC3)CCN(S(=O)(=O)c3ccc(C)cc3)CC2)cc1` [CBK008752] is higher in “% of control remaining” value: 72.4061 for the first, 98.5695 for the second.

Going from `COc1ccccc1-c1cn2ccnc2c(Nc2cccc(Cl)c2)n1` [CBK066399] to `O=[N+]([O-])c1cccc(-c2ccc(-c3nn4c(Cc5ccccc5)nnc4s3)o2)c1` [CBK267310], the “% of control remaining” value falls from 149.619 to 96.6696.

First: O=C(O)c1ccccc1C(=O)OCCN1CCOCC1 [CBK261462]
Second: O=C(Cn1nc(C(=O)O)c2ccccc2c1=O)NCc1ccc(Cl)cc1Cl [CBK295320]
The “% of control remaining” value of the first is higher: 107.314 for the first, 95.3336 for the second.

Going from `CCCCN(C)S(=O)(=O)NCCc1cn2ccccc2n1` [CBK304543] to `C=CCn1cc(CN(CCN(C)C)Cc2ccc(C)o2)c(C)n1` [CBK282844], the “% of control remaining” value falls from 111.234 to 80.3687.

First: Cc1nc(C)c(C(=O)N2CCC(c3cc4cccnc4[nH]3)CC2)s1 [CBK284998]
Second: O=C1COc2ccccc2C/C=C/CC2(CCN(C(=O)CCc3cccnc3)CC2)CN1 [CBK292127]
The “% of control remaining” value of the first is higher: 92.7797 for the first, 77.888 for the second.

First: COc1cc2c(cc1OC)CN(C(=O)CSc1nc3c(c(-c4cccs4)c1C#N)CN(C)CC3)CC2 [CBK267462]
Second: CCOC(=O)c1cnc(SCc2nc(N)nc(Nc3ccc(F)cc3)n2)nc1N [CBK098477]
The “% of control remaining” value of the first is higher: 92.9588 for the first, 82.7404 for the second.

For `COC(=O)c1c(O)noc1C` [CBK023348], the “% of control remaining” value was 79.4613.
